Experimental data published in article PMC12040169 (PLOS Biology, 2025).
This is one part of the list.

system: T1, C. trachomatis L2/434/Bu expressing GFP (CTL2-GFP); set-up: species or system HeLa; C. trachomatis total inclusion area by high-content imaging, normalised to DMSO; conditions: total inclusion area; 28.5 h, 10 µM; inhibitor
T1 construct: L2/434/Bu GFP intracellular growth in HeLa cells
Summary of the method: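 Host cell viability was gauged from Hoechst-stained nuclei counts, while chlamydial growth was taken from total inclusion area and inclusion number per well. Cells were fixed and imaged by high-content microscopy once bulk GFP and resorufin fluorescence had been measured.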

Compound	% of control remaining
COc1cccc(-c2cnc3[nH]c(=O)n(Cc4ccc(Cl)cc4)c3n2)c1 [CBK064596]	102.975
CC(=O)Oc1cc(C(F)(F)F)nc(NCc2ccc(Cl)cc2)n1 [CBK000500]	74.6357
O=C(NCc1nnc(-c2cccs2)o1)c1cccc(Cl)c1 [CBK284633]	80.9542
CCn1cc(C(=O)N2CCn3cc(C(F)(F)F)nc3C2)c(C)n1 [CBK283916]	80.649
O=C(c1ccco1)N1CCN(c2ncc(-c3ccc(N4CCOCC4)cc3)n3ccnc23)CC1 [CBK091225]	97.4703
CC(=O)Nc1ccc(S(=O)(=O)NC2(C(F)(F)F)N=C(c3ccccc3)NC2=O)cc1 (stereo not drawn) [CBK267932]	105.851
O=C(NCC1CCN(c2ccc(F)c(F)c2)C1)c1c[nH]nc1C1CC1 (stereo not drawn) [CBK305409]	47.7565
COCCNC(=O)Cn1c(-c2ccco2)cc2cccnc21 [CBK282720]	147.03
O=C(Nc1ccc(C(F)(F)F)cc1)N(Cc1ccc2ccccc2c1)CC1CCNCC1 [CBK056720]	96.0373
COc1cccc(NC(=O)c2cncc(-c3ccc(C(=O)N4CCOCC4)cc3)c2)c1 [CBK160213]	89.0452
C=CCNC(=O)N[C@H]1[C@H](O)[C@@H](N2CCC(C(=O)OC)CC2)[C@@H]2OC[C@H]1O2 [CBK288807]	126.151
O=C(Nc1cnc(-c2cccc(C(F)(F)F)c2)c(-c2ccco2)n1)c1ccccn1 [CBK036873]	108.724
C/C(=N\NC(=O)CCN1CCN(C)CC1)c1ccc(O)cc1 [CBK263142]	97.7451
COCCN1C(=O)C2(CC(=O)N(CCN3CCCC3=O)C2=O)c2cc(OC)ccc21 (stereo not drawn) [CBK075189]	98.8402
CCOc1cc(OCC)cc(C(=O)N2CCCC3(CC2)CC(=O)c2ccc(C)cc2O3)c1 (stereo not drawn) [CBK168241]	92.6766
O=C(Nc1ccc(F)c(F)c1)N[C@H]1CC[C@@]2(c3cccc(Br)c3)CCN(Cc3ccccc3)[C@H]2C1 [CBK047515]	61.7414
O=C(NCc1ccccc1)c1cnccc1C(F)(F)F [CBK200194]	86.9506
CNC1(c2nnnn2CCOC(=O)Nc2ccc(Cl)cc2)CCCC1 [CBK266253]	92.0622
Cc1cccc(CN2CCC(NC(=O)C3(C#N)CCCC3)CC2)c1 [CBK305781]	44.5949
CN(C)CCCn1cccc1C=O [CBK261993G]	93.8317

Compound	% of control remaining
Cc1ccc(C)c(CC(=O)N(CCC(=O)O)C2CCOCC2)c1 [CBK305469]	136.519
COc1ccc([C@@]23CC[C@@H](NC(=O)Nc4cc(C)nc(C)c4)C[C@@H]2N(C)CC3)cc1OC [CBK045876]	80.5493
COc1ccc(C2=NN(C(=O)CCCC(=O)O)C(c3ccc4nccnc4c3)C2)cc1OC (stereo not drawn) [CBK297785]	115.42
O=C(NCc1ccc(C(=O)O)cc1)NC1CCCCC1 [CBK286980]	119.809
CCOc1cc(S(=O)(=O)NCc2ccncc2)ccc1Br [CBK270147]	82.3871
O=S(=O)(NCCc1nc2ccccc2[nH]1)c1ccc(Cl)c(Cl)c1 [CBK264416]	97.1269
O=C(CSc1nccn(-c2ccc(F)cc2)c1=O)Nc1ccc(F)cc1 [CBK287768]	66.9297
O=C(NCc1nc2ccccc2[nH]1)c1cc(Br)cnc1N1CCOCC1 [CBK076278]	100.063
c1ccc(OCCN2CCCN(c3cc(OCC4COc5ccccc5O4)ncn3)CC2)cc1 (stereo not drawn) [CBK083395T]	72.584
CCN(CC)C(=O)c1ccsc1NS(=O)(=O)c1ccc(Br)cc1 [CBK042318]	106.611
COc1cccc(CC(=O)N2CCC(Cc3ccccc3-c3ccccc3)(C(N)=O)CC2)c1 [CBK285730]	107.736
O=[N+]([O-])c1cc(CN2CCN(c3ccccc3)CC2)c(O)c2ncccc12 [CBK218696]	115.137
CN(C)CCCNC(=O)c1ccc([N+](=O)[O-])o1 [CBK262118]	40.9056
Cc1nc(CNCc2c(C(C)C)nn(C)c2N(C)C)cs1 [CBK305119]	67.9957
Cc1ccc2[nH]c(C)c(CC(=O)N(C)CCN3CCCCC3)c2c1 [CBK282749]	100.586
COc1ccc(CCNC(=O)CCn2nc(C)c(Cl)c2C)cc1C [CBK281643]	88.023
Cc1ccc(C(=O)C2=C(O)C(=O)N(CCO)C2c2ccccc2[N+](=O)[O-])cc1 (stereo not drawn) [CBK263822]	95.5384
CC(C)CCc1c(O)nc(SCCN2CCOCC2)n(-c2ccccc2)c1=O [CBK263363C]	93.7086
O=[N+]([O-])c1ccc(Sc2cccs2)c(C(F)(F)F)c1 [CBK002621]	76.2517
